In PMC4336329 (PLoS ONE, 2015):
The campaign covered roughly 310,000 compounds. About 2,200 (0.71%) showed an effect of 50% or more. Effects have a minus sign here. This is one part of the list.

target: human ether-à-go-go-related gene (hERG) potassium channel (human, UniProt Q12809); test: primary screen, population patch clamp on CHO cells stably expressing hERG
Sequence (Q12809 whole entry, looked up): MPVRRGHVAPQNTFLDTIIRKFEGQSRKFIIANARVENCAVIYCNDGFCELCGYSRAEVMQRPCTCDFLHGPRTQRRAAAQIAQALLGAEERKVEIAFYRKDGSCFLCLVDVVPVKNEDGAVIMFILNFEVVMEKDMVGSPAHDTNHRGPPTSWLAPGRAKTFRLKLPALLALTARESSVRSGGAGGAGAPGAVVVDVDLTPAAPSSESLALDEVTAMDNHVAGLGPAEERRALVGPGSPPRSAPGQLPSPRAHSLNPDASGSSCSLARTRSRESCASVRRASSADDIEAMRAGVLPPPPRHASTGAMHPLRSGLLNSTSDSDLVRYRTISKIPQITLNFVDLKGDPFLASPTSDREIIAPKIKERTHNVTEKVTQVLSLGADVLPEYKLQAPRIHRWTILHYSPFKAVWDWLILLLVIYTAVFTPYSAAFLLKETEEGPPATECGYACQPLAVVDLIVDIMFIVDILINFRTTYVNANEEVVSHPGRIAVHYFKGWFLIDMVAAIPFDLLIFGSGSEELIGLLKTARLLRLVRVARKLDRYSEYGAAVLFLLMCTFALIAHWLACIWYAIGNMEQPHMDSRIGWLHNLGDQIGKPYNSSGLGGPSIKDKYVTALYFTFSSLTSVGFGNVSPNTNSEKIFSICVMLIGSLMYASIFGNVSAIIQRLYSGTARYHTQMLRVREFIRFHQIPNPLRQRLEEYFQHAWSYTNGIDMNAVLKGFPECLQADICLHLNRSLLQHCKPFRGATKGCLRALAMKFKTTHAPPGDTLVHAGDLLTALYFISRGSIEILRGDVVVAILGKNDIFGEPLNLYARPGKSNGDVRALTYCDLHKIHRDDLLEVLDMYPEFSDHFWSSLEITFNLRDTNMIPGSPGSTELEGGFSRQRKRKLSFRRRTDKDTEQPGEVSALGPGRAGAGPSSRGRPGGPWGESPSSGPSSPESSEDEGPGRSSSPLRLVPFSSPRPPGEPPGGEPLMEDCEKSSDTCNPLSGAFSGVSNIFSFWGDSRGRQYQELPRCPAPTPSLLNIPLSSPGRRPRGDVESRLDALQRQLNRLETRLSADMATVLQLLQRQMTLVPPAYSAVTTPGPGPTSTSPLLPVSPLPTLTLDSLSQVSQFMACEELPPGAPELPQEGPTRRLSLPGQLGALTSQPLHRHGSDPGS

| SMILES | hERG current change (%, negative = inhibition) at 1uM [%] |
| --- | --- |
| CCOC(=O)CN1NC2(CCCCCCC2)NC1=S | 12.1 |
| CCCCCn1c(=O)c(C(=O)Nc2ccccc2)c(O)c2ccccc21 | 12.9 |
| CCCN1C(=O)C2(SC(NC(C)=O)=NN2C(C)=O)c2cc(C)ccc21 (stereo not shown) | 16.8 |
| CS(=O)(=O)N1CCc2cc(S(=O)(=O)N3CCN(Cc4ccc5c(c4)OCO5)CC3)ccc21 | 12.9 |
| Cc1cc(C)cc(OCC(O)CN2C(=O)NC(C)(C)C2=O)c1 (stereo not shown) | 22 |
| Clc1ccc(C2[C@H]3CN(CC4CCCCC4)[C@H](c4ccccc4)C34CC2(c2cccnc2)C4)cn1 (stereo partly shown) | -3.34 |
| CCc1noc(C)c1C(=O)N(C)CC(=O)Nc1ccccc1Br | 6.82 |
| COc1ccccc1C(=O)NCC1(c2ccccc2)CCCC1 | 14.6 |
| Cc1sc(N)nc1-c1ccccc1 | 11.1 |
| Nc1[nH]ncc1C(=O)Nc1cccc(C(F)(F)F)c1 | 6.42 |
| Cc1ccccc1C(=O)Nc1ccc(S(=O)(=O)N2CCN(C)CC2)cc1 | 5.64 |
| O=C(CN1C(=O)NC(c2ccc(F)cc2)C1=O)Nc1ccc2c(c1)OCCO2 (stereo not shown) | 12.3 |
| COc1ccc(CCNC(=O)c2c(N)n(CCN3CCOCC3)c3nc4ccccc4nc23)cc1 | 2.14 |
| O=C1CN(C(=O)CSc2nnc3ccccn23)c2ccccc2N1 | -4.26 |
| Cc1ccc(CCC(=O)NCc2ccccc2)o1 | 4.44 |
| CC(C)c1ccc(C2NCc3ccccc3-n3cccc32)cc1.Cl (stereo not shown) | 14 |
| Cc1ccc(-n2c(C)cc(C(=S)N3CCOCC3)c2C)cc1C | 2.89 |
| O=[N+]([O-])c1cc(/C=N/Nc2nc(N3CCCCC3)nc(N3CCCCC3)n2)ccc1O | 10.1 |
| c1ccc2cc(CNCc3cccc4ccccc34)ccc2c1 | 9.78 |
| CSc1ccc(C2=CC(=O)C[C@H](c3ccc(Cl)cc3)C2)cc1 | 13.7 |

| SMILES | hERG current change (%, negative = inhibition) at 1uM [%] |
| --- | --- |
| CC1(C)C(=O)N(c2ccccc2)C1c1ccccc1O (stereo not shown) | 8.94 |
| Cc1ccccc1CSCC(=O)NCc1ccco1 | 1.73 |
| COc1ccccc1C(=O)NNC(=O)c1cccc(O)c1 | 12.8 |
| COc1ccc(/C=C(\C#N)C(=O)Nc2cccc(C)n2)cc1 | 15.6 |
| CC(NC(=O)Nc1ccccc1)C(c1cccs1)N1CCN(C)CC1 (stereo not shown) | 1.44 |
| CCOc1c([N+](=O)[O-])cc2c(C)c(C(=O)N3CCN(C)CC3)oc2c1OCC.Cl | 3.61 |
| Cc1cccc(NC(=S)N/N=C/C(C)c2ccccc2)c1C (stereo not shown) | 11.6 |
| CC(C)N(CC#CC(O)(c1ccccc1)c1ccccc1)C(C)C | -38.1 |
| CC(C)n1c(CN2CCN(C(=O)c3ccco3)CC2)nc2c1c(=O)n(C)c(=O)n2C | 4.41 |
| COc1ccccc1/C=N/NC(=O)c1csc(C)c1C | 2.87 |
| COc1ccc(CCNC(=S)NCc2cccs2)cc1OC | 8.53 |
| O=C(C[n+]1cccc(/C=N/O)c1)N1CCCc2ccccc21.[Cl-] | 13.5 |
| CS(=O)(=O)c1ccc(Cl)c(NC(=O)c2cccc(-n3cnnn3)c2)c1 | -25.5 |
| CCN1CCN(c2ncnc3c2cnn3-c2ccc(Cl)cc2)CC1 | 10.6 |
| Cc1ccc(C(=O)OCC(=O)Nc2ccc(C(N)=O)cc2)s1 | 7.67 |
| COc1ccc(/C=C/C(=O)NCC(=O)N/N=C/c2cc(Br)ccc2OCc2ccccc2)cc1 | -0.127 |
| C/C(=N/NC(=O)CNC(=O)c1ccco1)c1ccc(Cl)cc1 | 13.8 |
| COC(=O)CNC(=O)C12CC3(C)CC(C)(CC(C)(C3)C1)C2 | 9.23 |
| CCOC(=O)C1CCCN(Cc2nc3ccc([N+](=O)[O-])cc3c(=O)n2-c2ccc(OC)cc2OC)C1 (stereo not shown) | 0.0791 |
| COc1ccc(/C(C)=N/NC(=O)C(NC(=O)c2ccccc2)c2n[nH]c(=O)c3ccccc23)c(OC)c1 (stereo not shown) | 11.7 |

| SMILES | hERG current change (%, negative = inhibition) at 1uM [%] |
| --- | --- |
| CC(C)CNC(=O)C(=O)NC1CCCC1 | 7.11 |
| Cc1ccccc1NC(=S)C1=C(O)c2sccc2N(C)S1(=O)=O | 8.99 |
| COc1cc(C2C(=O)c3ccccc3C2=O)ccc1O | 22.6 |
| O=C(NCC1CCCO1)C1c2ccccc2C(=O)N1C1CCCCCCC1 (stereo not shown) | 9.96 |
| Cc1ccccc1OCC(=O)N1CCCc2ccccc21 | -10.1 |
| Cc1ccc(S(=O)(=O)CCC(=O)OCC(=O)NCC(=O)Nc2cccc(C)c2C)cc1 | 5.91 |
| Cc1ccc(NC(=O)c2ccc3nc[nH]c3c2)c(O)c1 | 4.53 |
| O=C1CC(c2ccccc2)C(=O)N1c1cccc(O)c1 (stereo not shown) | 0.511 |
| O=C(Nc1nnc(-c2ccc(Cl)s2)o1)C1CCCCC1 | 8.31 |
| COc1ccc(S(=O)(=O)N2CCC(NC(=O)c3cccc(F)c3)CC2)cc1 | 11.8 |
| Cc1c(Cl)cccc1NC(=O)NCc1ccc(C)n1C | 10.1 |
| CCc1ccc(CN(C)C(C)C(=O)NCc2ccccc2)cc1 (stereo not shown) | 0.484 |
| FC(F)(F)c1cc(-c2ccco2)nc(-n2cnc3ccccc32)n1 | -2.75 |
| Cc1ccc(NC(=S)NCc2ccc3c(c2)OCO3)cc1 | 18.7 |
| COc1ccc2[nH]c(=O)c(CN(CCO)C(=O)c3cccs3)cc2c1 | -4.26 |
| COC(=O)c1sccc1NC(=O)c1cc(OC)cc(OC)c1 | 2.85 |
| C=C(C)COc1ccc2c(C)c(C)c(=O)oc2c1OCC(=C)C | 7.02 |
| COc1cccc(OC)c1C(=O)NC(=S)Nc1ccc2oc(=O)ccc2c1 | 12 |
